These results are taken from the supplement of paper PMC4967469.

Lines with a small IC50 respond at low doses; where the fit passes the top or lowest dose, that dose stands as a limit. AUC is the area under the same curve over the 256-fold range up to the top dose, as a fraction; values near 1 show little effect. Any top dose called inferred comes from the curve model; the source does not state it. For some of these results: Where an entry number is given, a second screen of the drug exists; the two often differ.

Compound in the first assay: Cc1cc(N2CCOCC2)cc2[nH]c(-c3c(NC[C@@H](O)c4cccc(Cl)c4)cc[nH]c3=O)nc12 [BMS-536924]
Briefly: Viability of human cancer cell lines after 72 h of drug (GDSC screen). As to conditions: top dose 4 µM; screen: GDSC drug entry 1091; top dose inferred. As to the method:
(§1)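 Human cancer cell lines in 384-well plates, medium with 10% serum, drug for 72 h over a 256-fold dose range (nine 2-fold or five 4-fold steps up to the top dose). Adherent lines were fixed and stained with the nucleic acid dye Syto60, suspension lines read with resazurin; signal relative to control wells, capped at 0 and 100%. One two-parameter sigmoid per drug and line, fitted in a mixed model over all curves with the slope shared within a line.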
Take Farage (B-cell lymphoma, suspension): the AUC was 0.992 and the IC50 is over 4 µM.
Consider GB-1 (glioma, adherent), for which the AUC stood at 0.882 and the IC50 is over 4 µM.
For the cell line GI-1 (glioma, adherent), the AUC worked out at 0.927 and the IC50 is over 4 µM.
For GI-ME-N (neuroblastoma, adherent), in that order: 0.791 and 2.57 µM.
For “GR-ST (lymphoblastic leukaemia, suspension)”, in that order: 0.8 and 2.43 µM.
The like results for “GRANTA-519 (B-cell lymphoma, suspension)” were, in that order, 0.99 and over 4 µM.
Consider GT3TKB (stomach, adherent), for which the AUC turned out to be 0.939 and the IC50 is over 4 µM.
As for H9 (lymphoid neoplasm, suspension), the AUC is 0.953 and the IC50 is over 4 µM.
As for HCC2157 (breast, suspension), the AUC is 0.931 and the IC50 was over 4 µM.
Consider HCC2218 (breast, suspension), for which the AUC worked out at 0.982 and the IC50 is over 4 µM.

The same assay, now with this note: top dose 5.12 µM; screen: GDSC drug entry 62.
For the cell line ES6 (Ewing sarcoma, adherent), the AUC worked out at 0.493 and the IC50 was found to be 0.306 µM.
For ES7 (Ewing sarcoma, adherent), in that order: 0.954 and over 5.12 µM.
The like results for ES-2 (ovary, adherent) were, in that order, 0.98 and over 5.12 µM.
Take ETK-1 (biliary tract, adherent): the AUC was 0.372 and the IC50 was determined as 0.135 µM.
For EVSA-T (breast, adherent), in that order: 0.96 and over 5.12 µM.
For EW-1 (Ewing sarcoma, semi-adherent), in that order: 0.423 and 0.2 µM.
Consider EW-11 (Ewing sarcoma, adherent), for which the AUC stood at 0.967 and the 50% inhibitory concentration (IC50) is over 5.12 µM.
EW-16 (Ewing sarcoma, adherent): the AUC worked out at 0.419 and the 50% inhibitory concentration (IC50) was 0.19 µM.
For EW-24 (Ewing sarcoma, semi-adherent), in that order: 0.927 and over 5.12 µM.
As to “EoL-1-cell (haematopoietic neoplasm, suspension)”, the AUC worked out at 0.725 and the IC50 was found to be 1.27 µM.
For Farage (B-cell lymphoma, suspension), in that order: 0.855 and 2.97 µM.
For the cell line GB-1 (glioma, adherent), the AUC came to 0.577 and the IC50 stood at 0.539 µM.
As to GI-1 (glioma, adherent), the AUC is 0.677 and the IC50 stood at 0.974 µM.
The like results for GI-ME-N (neuroblastoma, adherent) were, in that order, 0.695 and 1.39 µM.
Take “GR-ST (lymphoblastic leukaemia, suspension)”: the AUC worked out at 0.778 and the IC50 amounted to 2.54 µM.
For “GRANTA-519 (B-cell lymphoma, suspension)”, in that order: 0.978 and over 5.12 µM.
With GT3TKB (stomach, adherent), the AUC stood at 0.859 and the IC50 amounted to 3.48 µM.
The like results for H9 (lymphoid neoplasm, suspension) were, in that order, 0.824 and 2.36 µM.
For HCC2157 (breast, suspension), in that order: 0.949 and over 5.12 µM.
The like results for HCC2218 (breast, suspension) were, in that order, 0.967 and over 5.12 µM.

Compound in another assay: Cc1cccc(-c2[nH]c(C(C)(C)C)nc2-c2ccc3nccnc3c2)n1 [SB-525334]
The description is as above. As to conditions: top dose 20 µM; top dose inferred. As to the method:
as §1
In the case of ES6 (Ewing sarcoma, adherent), the AUC was determined as 0.941 and the IC50 was over 20 µM.
Turning to ES7 (Ewing sarcoma, adherent), the AUC worked out at 0.805 and the IC50 came to 10.4 µM.
The like results for ES-2 (ovary, adherent) were, in that order, 0.925 and over 20 µM.
For ETK-1 (biliary tract, adherent), in that order: 0.841 and 16.7 µM.
For EVSA-T (breast, adherent), in that order: 0.819 and 9.38 µM.
In the case of EW-1 (Ewing sarcoma, semi-adherent), the AUC came out at 0.857 and the IC50 stood at 14.3 µM.
For EW-11 (Ewing sarcoma, adherent), in that order: 0.743 and 7.78 µM.
For EW-16 (Ewing sarcoma, adherent), the AUC turned out to be 0.59 and the IC50 was 2.23 µM.
For EW-24 (Ewing sarcoma, semi-adherent), in that order: 0.993 and over 20 µM.
The like results for “EoL-1-cell (haematopoietic neoplasm, suspension)” were, in that order, 0.948 and over 20 µM.
Take Farage (B-cell lymphoma, suspension): the AUC was 0.955 and the IC50 was over 20 µM.
The like results for GB-1 (glioma, adherent) were, in that order, 0.829 and 15.6 µM.
For GI-1 (glioma, adherent), in that order: 0.885 and over 20 µM.
With GI-ME-N (neuroblastoma, adherent), the AUC amounted to 0.645 and the IC50 came out at 3.65 µM.
“GR-ST (lymphoblastic leukaemia, suspension)”: the AUC was determined as 0.927 and the IC50 was over 20 µM.
As to “GRANTA-519 (B-cell lymphoma, suspension)”, the AUC amounted to 0.984 and the IC50 was over 20 µM.
The like results for GT3TKB (stomach, adherent) were, in that order, 0.988 and over 20 µM.
For H9 (lymphoid neoplasm, suspension), in that order: 0.991 and over 20 µM.
For HCC2157 (breast, suspension), in that order: 0.987 and over 20 µM.
As for HCC2218 (breast, suspension), the AUC was 0.945 and the IC50 was over 20 µM.

Compound in another assay: O=C1NC(=O)c2c1c(-c1ccccc1Cl)cc1[nH]c3ccc(O)cc3c21 [Wee1 inhibitor 681640]
The description is as above. As to conditions: top dose 2 µM; top dose inferred. As to the method:
as §1
As to ES6 (Ewing sarcoma, adherent), the AUC stood at 0.976 and the IC50 was over 2 µM.
As for ES7 (Ewing sarcoma, adherent), the AUC amounted to 0.902 and the IC50 was over 2 µM.
As for ES-2 (ovary, adherent), the AUC was 0.922 and the IC50 is over 2 µM.
For ETK-1 (biliary tract, adherent), in that order: 0.946 and over 2 µM.
The like results for EVSA-T (breast, adherent) were, in that order, 0.981 and over 2 µM.
As to EW-1 (Ewing sarcoma, semi-adherent), the AUC amounted to 0.901 and the IC50 was over 2 µM.
For EW-11 (Ewing sarcoma, adherent), in that order: 0.952 and over 2 µM.
For EW-16 (Ewing sarcoma, adherent), in that order: 0.876 and over 2 µM.
For EW-24 (Ewing sarcoma, semi-adherent), in that order: 0.986 and over 2 µM.
In the case of “EoL-1-cell (haematopoietic neoplasm, suspension)”, the AUC was 0.961 and the IC50 is over 2 µM.
For Farage (B-cell lymphoma, suspension), in that order: 0.977 and over 2 µM.
The like results for GB-1 (glioma, adherent) were, in that order, 0.864 and over 2 µM.
The like results for GI-1 (glioma, adherent) were, in that order, 0.925 and over 2 µM.
Consider GI-ME-N (neuroblastoma, adherent), for which the AUC was 0.854 and the IC50 was over 2 µM.
The like results for “GR-ST (lymphoblastic leukaemia, suspension)” were, in that order, 0.782 and 1.02 µM.

What is called IC50 is the point on the concentration scale where inhibition reaches its midpoint.
